# Measured values as given in PubChem BioAssay AID504832 (National Center for Advancing Translational Sciences (NCATS), 2011).
# About 18,000 (5.8%) of roughly 310,000 compounds were called active. This list was built around the results that the source calls inconclusive (neither active nor inactive); the mix of calls is not that of the screen. Calls come from the whole dose curve; as a rule, active = well fitted inhibition curve with a large enough effect; inconclusive = small, poorly fitted or top-dose-only effect, or another doubt; inactive = no such curve, though single readings can be large or run the other way. Potencies of inconclusive entries are left out as doubtful fits.
# Test: Primary qHTS for delayed death inhibitors of the malarial parasite plastid, 48 hour incubation
# Settings: P. falciparum luciferase growth in erythrocytes; series mostly up to 28.7 µM
# Method in brief: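 Luminescence readout; reporter = integrated firefly luciferase in P. falciparum. RBC culture at 2% hematocrit, 0.1% parasitemia final, 37 C/5% CO2; decreased signal taken as growth inhibition.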
# Potency is the fitted concentration of half-maximal effect; tags give direction and shape of the fitted curve.
row,Compound,Potency
1,CCOC(=O)c1c(CSc2ccccc2)n(C)c2ccc(O)c(CN3CCOCC3)c12,"inconclusive [inhibitor, single point]"
2,Cc1cc(N(CCO)CCO)ccc1C(c1ccc(N(CCO)CCO)cc1C)c1ccccc1Cl,"inconclusive [inhibitor, partial curve]"
3,Cc1ccc(S(=O)(=O)N2CCN(C)CC2)cc1C(=O)NC1CCCCC1,inactive
4,CN(C)C1(CNC(=O)C2CCC(=O)N(CCc3ccc(Cl)cc3)C2)CCCCC1 (stereo not drawn),"inconclusive [inhibitor, full curve]"
5,COc1ccccc1NC(=O)CN1CCN(CC(=O)Nc2ccc(F)cc2)CC1,"inconclusive [inhibitor, partial curve, poor fit]"
6,O=[N+]([O-])c1ccc(N(c2ccccc2)c2ccccc2)cc1,"inconclusive [inhibitor, partial curve, poor fit]"
7,CCCN1CCc2c(sc(NC(=O)CCS(=O)(=O)c3ccccc3)c2C(=O)OC)C1,"inconclusive [inhibitor, single point]"
8,O=C(OCc1ccccc1)C1=NNC2C(=O)N(c3ccc(Br)cc3)C(=O)C12 (stereo not drawn),inactive
9,CCOc1ccc2[nH]c3c(N4CCN(C(=O)c5ccco5)CC4)ncnc3c2c1,"inconclusive [inhibitor, partial curve, poor fit]"
10,S=c1[nH]nc(CCSCc2ccccc2)n1-c1ccccc1,inactive
11,COc1ccccc1NC(=S)N/N=C1\CC(C)(C)Oc2ccc(O)cc21,"inconclusive [inhibitor, partial curve, poor fit]"
12,CSc1nc(NCC(C)C)c2c3c(sc2n1)CN(C)CC3,"inconclusive [inhibitor, partial curve]"
13,Cc1ccccc1Oc1ccc(Oc2ccccc2C)nn1,"inconclusive [inhibitor, single point]"
14,O=C(N/N=C/C(Br)=C\c1ccccc1)c1ccc2nc[nH]c2c1,inactive
15,Cc1c(Cl)cccc1NC(=S)NC1CCCC1,"inconclusive [inhibitor, single point]"
16,CN(CC(=O)Nc1ccc(Cl)c(C(F)(F)F)c1)C(=O)C1CC(=O)N(Cc2ccco2)C1 (stereo not drawn),"inconclusive [inhibitor, partial curve, poor fit]"
17,COC(=O)C1=C(C)NC(C)=C(C(=O)OCC2CCCO2)C1c1ccc(Cl)c([N+](=O)[O-])c1 (stereo not drawn),"inconclusive [inhibitor, partial curve]"
18,CCOC(=O)C1CCCN(C2CC(=O)N(c3ccc(C)c(C)c3)C2=O)C1 (stereo not drawn),inactive
